Data as given in article PMC7819943, “Rice protein-binding microarrays: a tool to detect cis-acting elements near promoter regions in rice”.
The other results are listed elsewhere or left out.

target: T1, OsWOX13 (Oryza sativa, UniProt Q5QMM3 1-267); experiment: protein-binding microarray (RPBM); PBS, 2% BSA, 51.3 ng/ul salmon testes DNA, 50 uM zinc acetate, 200 nM TF, 25 C, 1 h; high values mean tight binding; conditions: protein: recombinant; tags: N-terminal polyhistidine and DsRed monomer fusion (pET32a); label: CyDye5-dUTP incorporated in the synthesized complementary strand; 3' TTTTT single-stranded linker to array surface; dsDNA, one strand shown
T1 sequence: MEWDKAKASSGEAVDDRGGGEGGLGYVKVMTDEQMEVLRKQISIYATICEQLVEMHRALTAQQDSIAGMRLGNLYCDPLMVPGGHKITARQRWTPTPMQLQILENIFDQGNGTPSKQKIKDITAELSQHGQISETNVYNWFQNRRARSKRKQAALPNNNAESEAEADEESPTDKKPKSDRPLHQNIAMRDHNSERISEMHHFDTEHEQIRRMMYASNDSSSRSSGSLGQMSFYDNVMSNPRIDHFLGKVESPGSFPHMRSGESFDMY
Summary of the method: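 The binding signal is fluorescence intensity per feature, in arbitrary units, read on an Axon 4000B scanner. Polyhistidine- and DsRed-tagged transcription factors (N-terminal fusions) from E. coli BL21-CodonPlus were purified on Ni–NTA and applied at 200 nM for 1 h at 25 °C to a double-stranded, BSA-blocked custom Agilent array in buffer with 50 µM zinc acetate.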

Sequence | binding signal
AATAAATATAAAATTAATAATATAAATTAATATGTAGTATCGGAGTCACCTAGTGCAG | 13700 fluorescence intensity (a.u.)
TTAAATTACATATACAATTTCATTGTATTTACAATGTAACCGGAGTCACCTAGTGCAG | 14900 fluorescence intensity (a.u.)
ACAATTAATTTAATTAAATTGAGGTCAGCCATGCATGCAGCGGAGTCACCTAGTGCAG | 64800 fluorescence intensity (a.u.)
AAGTATTAATTTGTCCTAATTAAACTGACTGCATATATTCCGGAGTCACCTAGTGCAG | 20800 fluorescence intensity (a.u.)
GAGTAGATTGCAGATTCAAGTCAATGGATTTAAGTCATGGCGGAGTCACCTAGTGCAG | 7850 fluorescence intensity (a.u.)
CACTATTTTGTAGATTTAATTAATATATGCAACGCATGCTCGGAGTCACCTAGTGCAG | 3970 fluorescence intensity (a.u.)
TTACACTACGATTATACTGTAATTATATCTGTTAAATTTTCGGAGTCACCTAGTGCAG | 3740 fluorescence intensity (a.u.)
ACTTATTAATTTGGTAATTTATAGATATCCTTATGTAATACGGAGTCACCTAGTGCAG | 19100 fluorescence intensity (a.u.)
TGTGAAAATGGATAATTAAGGGATCCCAAAGACCCATAAGCGGAGTCACCTAGTGCAG | 10800 fluorescence intensity (a.u.)
CGGCTAAACTTAAATTTCGTTCCATTGCATTGTTAAGATCCGGAGTCACCTAGTGCAG | 3980 fluorescence intensity (a.u.)
ATCAAGAATCAATCACTCGCTCGTCTTCTCCTCCATTGGACGGAGTCACCTAGTGCAG | 14800 fluorescence intensity (a.u.)
GGGGTTTGACAGTGGGGTGGAGAGGACAAGTAAACAGTGGCGGAGTCACCTAGTGCAG | 3820 fluorescence intensity (a.u.)
AGTCAAATTAATCACGCAGCTGAATGCTGAATAATGTGTCCGGAGTCACCTAGTGCAG | 24000 fluorescence intensity (a.u.)
GTGGAATTTACTAACTAGTGAATTAAGAAGATAATGGATGCGGAGTCACCTAGTGCAG | 3840 fluorescence intensity (a.u.)
TATTTCCACTCGAGTGATTGATATACTTAGGTCCTGTTTGCGGAGTCACCTAGTGCAG | 20000 fluorescence intensity (a.u.)
GTAGGATTAATTGTCAGGAATGTTAGATATAGAAATAAATCGGAGTCACCTAGTGCAG | 6430 fluorescence intensity (a.u.)
AGATAAATGTGATTGTAATGTTGATCTTCGACGCAAGAGTCGGAGTCACCTAGTGCAG | 21300 fluorescence intensity (a.u.)
ACAAAACAAATTATATATTTCGTCAGAAAACTGCGAGACGCGGAGTCACCTAGTGCAG | 8340 fluorescence intensity (a.u.)
CCAACAAGACTTGATTAATCCAATCATCCCAATAATCGTTCGGAGTCACCTAGTGCAG | 23700 fluorescence intensity (a.u.)
GAGCCTGATTTTGAGTGAAATTAAGTGGAATTGTATTAAGCGGAGTCACCTAGTGCAG | 8990 fluorescence intensity (a.u.)
TCCTAATTGAAGGGGATGGGGCAGTCTCTGGTCGACCTCACGGAGTCACCTAGTGCAG | 32300 fluorescence intensity (a.u.)

Sequence | binding signal
CCACCAATTAAACACGTCTATCTTGCCATATATTCCTCACCGGAGTCACCTAGTGCAG | 9350 fluorescence intensity (a.u.)
AATCTGGACATAATGATTTGTTGTATTAGGAGTACTCCCCCGGAGTCACCTAGTGCAG | 7280 fluorescence intensity (a.u.)
TCCATAATTAGCCATAAGTGCTATACATTAACCCCATATGCGGAGTCACCTAGTGCAG | 27700 fluorescence intensity (a.u.)
GTGCTTGATTAGCTAGGGAAGAAGCATCGTGCGGAAGATACGGAGTCACCTAGTGCAG | 14500 fluorescence intensity (a.u.)
AACAAATCAAATTCCGTTAATAGAGAGTTTCTAAAATATGCGGAGTCACCTAGTGCAG | 10400 fluorescence intensity (a.u.)
CATTATTTGATAAAATTGATAATTATGTGGCTAGGTTTAGCGGAGTCACCTAGTGCAG | 26800 fluorescence intensity (a.u.)
CTAATTATAAACCTTAATCAGCTAAAATCCTAACCCATCACGGAGTCACCTAGTGCAG | 3290 fluorescence intensity (a.u.)
CTCATCATTATCAATTCAATTATCGGAATGAAAGGAGCTTCGGAGTCACCTAGTGCAG | 15500 fluorescence intensity (a.u.)
AGCCAATTTACATGTGAGACATGTTTCGATTTATGCTGGCCGGAGTCACCTAGTGCAG | 5620 fluorescence intensity (a.u.)
TGTAATTATATCATTTCAATTTTAAAGTATTAGAGATATGCGGAGTCACCTAGTGCAG | 22800 fluorescence intensity (a.u.)
AATAAACAAGTAAATCATCCATCATCGTTCACCCGCATTTCGGAGTCACCTAGTGCAG | 7140 fluorescence intensity (a.u.)
TCTAATTTATTTACGTATATATTATGATATATATAATCTACGGAGTCACCTAGTGCAG | 4090 fluorescence intensity (a.u.)
TCCTCGCTGTTAACCACATTAATTGTCTAGCTACTCTTGACGGAGTCACCTAGTGCAG | 22100 fluorescence intensity (a.u.)
TCATTCGTCTAAATTAATTAGTGTTATTCAACGCAACATCCGGAGTCACCTAGTGCAG | 16400 fluorescence intensity (a.u.)
ACCAATTTGATCATTAACTTTTATACCAACATGACCACATCGGAGTCACCTAGTGCAG | 10200 fluorescence intensity (a.u.)
ATAATAATTGCTAGTGGGTGATGATGTGGTATACTTGCATCGGAGTCACCTAGTGCAG | 30900 fluorescence intensity (a.u.)
AACTAATGATATCCTGTAATCTAGACACCACGTCTAAATTCGGAGTCACCTAGTGCAG | 5370 fluorescence intensity (a.u.)
TGTTAACGAATCTAGATAGACAGGATAATCCTAGAAAGTTCGGAGTCACCTAGTGCAG | 5250 fluorescence intensity (a.u.)
AGGTTTAATTTCAATTAATCATAAAACTTGGACATTTACACGGAGTCACCTAGTGCAG | 30700 fluorescence intensity (a.u.)
CAGGATCCAGTGTGATTGAGGTGAATGGGAAGACCTGTGACGGAGTCACCTAGTGCAG | 10800 fluorescence intensity (a.u.)
AAGAAATGATTTCATAATATATACTACACTATGATTTCATCGGAGTCACCTAGTGCAG | 9870 fluorescence intensity (a.u.)
